Reference: PubChem BioAssay AID686971 (National Center for Advancing Translational Sciences (NCATS), 2013)
About 7,500 (2.1%) of roughly 360,000 compounds were called active. Inconclusive means that the source gave no clear call. Such entries were picked first, then a sample of the others. The call rests on the fitted dose curve; in most records, active means well fitted cell-killing curve with a large enough effect; inconclusive means small, poorly fitted or top-dose-only effect, or effect the other way, or another doubt; inactive means no such curve, though single readings can be large or run the other way. Potencies of inconclusive entries are left out as doubtful fits.

Assay: qHTS for induction of synthetic lethality in tumor cells producing 2HG: qHTS for the HT-1080-IDH1KD cell line;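 on activity, negative = toxicity: 0% = DMSO wells and -100% = cell-free medium wells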
Conditions: HT-1080 IDH1 knockdown viability, ATP luminescence, 48 h; activity, negative = toxicity: at 46.1 µM (top of the series) unless noted
Summary of the method: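 HT-1080-IDH1KD cells (IDH1 knocked down), 750/well in RPMI with 5% FBS, treated with compound 48 h at 37 degrees C. Viability by CellTiter-Glo luminescence, normalised to DMSO and no-cell wells; concentration-response curves classed.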
Potency means the concentration at half of the fitted maximal effect; tags describe the fitted curve by direction and shape.

| Compound | Potency | activity, negative = toxicity |
| --- | --- | --- |
| COc1ccc(S(=O)(=O)N(C)[C@H]2C[C@H]3c4cc(-c5ccccc5)ccc4CCN3C(=O)[C@H]2[C@H](C)O)cc1 | inconclusive [cytotoxic, partial curve] | – |
| CCOC(=O)c1[nH]c2cc(OC)c(OC)cc2c1NC(=O)CN(C)C1CCCCC1 | inconclusive [cytotoxic, single point] | – |
| COc1ccc(CN2CCN(Cc3ccccc3C(F)(F)F)CC2)c(OC)c1 | inconclusive [cytotoxic, partial curve] | – |
| COc1cccc(C(=O)c2cc3cc(Cl)ccc3[nH]2)c1 | inconclusive [cytotoxic, single point] | – |
| CCOc1ccc(N(C)c2ccc(/C=C3/SC(=S)NC3=O)cc2)cc1 | inconclusive [cytotoxic, single point] | – |
| O=C(C1=C[C@H](c2ccc(C(F)(F)F)cc2)C[C@H](OCc2ccc(CO)cc2)O1)N1CCCCCCC1 | inconclusive [cytotoxic, single point] | – |
| Cc1nn(Cc2ccccc2)c(C)c1NC(=O)CSc1nc2sc3c(c2c(=O)n1C)CCC3 | – | inactive: -8.89% |
| NC(=S)n1[nH]c(-c2ccc([N+](=O)[O-])cc2)c(N=Nc2cccc([N+](=O)[O-])c2)c1=O | active: 0.82 µM | – |
| CCOC(=O)c1ccc2ncc(C(=O)OCC)c(NCc3ccco3)c2c1 | inconclusive [cytotoxic, single point] | – |
| Cc1cc(C(C)(C)C)cc(C)c1C[n+]1ccc2ccccc2c1 | inconclusive [cytotoxic, single point] | – |
| COc1ccc2c(c1)c(C(=O)N/N=C/c1ccc(Br)cc1)c(C)n2C | active: 18.4 µM | – |
| COC(=O)CC/C(O)=C1\C(=O)CC(C)(C)CC1=Nc1ccccc1OC | inconclusive [cytotoxic, single point] | – |
| CCCCNC(=O)COCc1cc(-c2ccc3c(c2)OCO3)on1 | inconclusive [cytotoxic, partial curve] | – |
| O=C(Nc1cccc(Cl)c1)N(CCN1CCOCC1)Cc1cccc(Cl)c1 | inconclusive [cytotoxic, single point] | – |
| CCOc1ccc(OCc2cccc(C(=O)Nc3ccc(CN4CCCCC4)cc3)c2)cc1 | inconclusive [cytotoxic, single point] | – |
| Cn1cnc([N+](=O)[O-])c1Sc1nc(N)nc2c1ncn2C1CC(O)C(CO)O1 (stereo not given) | active: 1.3 µM | – |
| CCC(=O)[C@@]1(C)[C@H](C)C[C@H]2[C@@H]3CCC4=CC(=O)C=C[C@]4(C)[C@H]3[C@@H](O)C[C@@]21C | inconclusive [rising, full curve, poor fit] | – |
| CCOc1ccc(N(CCC#N)S(=O)(=O)c2ccc(OC)cc2)cc1 | inconclusive [cytotoxic, single point] | – |
| c1ccc(Nc2nc(NCCN3CCOCC3)nc(Nc3ccccc3)n2)cc1 | inconclusive [cytotoxic, partial curve] | – |
| O=C(Nc1nc(-c2cccs2)cs1)c1ccc(Cl)cc1 | inconclusive [cytotoxic, single point] | – |
| COC(=O)c1sc(S(=O)(=O)N2CCCCC2)c(C(=O)OC)c1C | – | inactive: -17% |
| Cc1ccc(-c2nnc(-c3ccc(NC(=O)Cc4cccs4)cc3)o2)cc1 | inconclusive [cytotoxic, single point] | – |

| Compound | Potency | activity, negative = toxicity |
| --- | --- | --- |
| CCNC(=O)C1(C)CCCN(C(=O)c2cc(C)n(C(C)(C)C)n2)C1 (stereo not given) | inconclusive [rising, single point] | – |
| O=C(NCCCN=C1NS(=O)(=O)c2ccccc21)c1ccc(S(=O)(=O)N2CCCCC2)cc1 | inconclusive [cytotoxic, single point] | – |
| O=C(Nc1ccc(Cl)cc1)C1=Cc2ccccc2OC1 | inconclusive [cytotoxic, single point] | – |
| CC(C)(C)c1ccc(C(=O)NC(=S)NNC(=O)c2cccs2)cc1 | inconclusive [cytotoxic, partial curve] | – |
| O=C1/C(=C\c2ccc([N+](=O)[O-])cc2)CS(=O)(=O)C/C1=C/c1ccc([N+](=O)[O-])cc1 | active: 3.66 µM | – |
| Cc1cccc(C(=O)OC(C)C(=O)Nc2ccc(S(=O)(=O)N3CCCC3)cc2)c1O (stereo not given) | inconclusive [cytotoxic, single point] | – |
| CC(OC(=O)c1c2c(nc3ccccc13)/C(=C\c1ccc3c(c1)OCO3)CCC2)C(=O)Nc1ccc(S(N)(=O)=O)cc1 (stereo not given) | inconclusive [cytotoxic, single point] | – |
| COc1ccc(CCNC(=O)C2CCCN(S(=O)(=O)c3ccc(F)cc3)C2)cc1OC (stereo not given) | – | inactive: -3.72% |
| CC1(C(=O)NCc2cccc(C(F)(F)F)c2)CCN1Cc1ccc2ccccc2c1 (stereo not given) | inconclusive [cytotoxic, single point] | – |
| CCOc1ccc(C(C)=O)cc1COC(=O)c1cnc(Cl)c(Cl)c1 | inconclusive [cytotoxic, partial curve, poor fit] | – |
| Fc1ccc(-n2c(Cc3ccccc3)nnc2SCc2nc(-c3ccc(Cl)cc3)no2)cc1 | inconclusive [cytotoxic, single point] | – |
| Cc1ccc(NC(=O)c2ccccc2NS(=O)(=O)c2ccc(Cl)s2)cc1S(=O)(=O)N1CCOCC1 | inconclusive [cytotoxic, full curve] | – |
| COc1ccc(OC2C(=O)N(Cc3ccc4c(c3)OCO4)C2c2sccc2C)cc1 (stereo not given) | inconclusive [cytotoxic, single point] | – |
| O=C(c1cccc(N2CCCC2=O)c1)N1CCN(c2cccc(Cl)c2)CC1 | active: 13 µM | – |
| COc1ccc(/C=N/NC(=O)c2ccc(N)cc2)cc1Cn1cc([N+](=O)[O-])cn1 | inconclusive [cytotoxic, single point] | – |
| CC(=O)Nc1cccc(-c2ccnc3c2CC(C)(C(=O)Nc2ccc(F)c(Cl)c2)O3)c1 (stereo not given) | inconclusive [cytotoxic, single point] | – |
| COc1ccc(C(=O)Nc2ccc(N3CCN(C)CC3)cc2)cc1[N+](=O)[O-] | – | inactive: 18.6% |
| CC(=O)c1cn(CCOc2cc(C)ccc2C)c2ccccc12 | active: 9.2 µM | – |
| O=C(Nc1ccc(Cl)cc1)Nc1nc(-c2ccccc2O)cs1 | – | inactive: -20.2% |
| CCN(CC)c1nc(C(N)=O)cc(-c2ccccc2)n1 | inconclusive [cytotoxic, single point] | – |
| COc1ccccc1N1CCN(C(=O)c2ccc(C(C)(C)C)cc2)CC1 | inconclusive [cytotoxic, single point] | – |
| COc1ccc(CCNC(=O)c2cnc(Cl)c(Cl)c2)cc1 | – | inactive: 3% |

| Compound | Potency | activity, negative = toxicity |
| --- | --- | --- |
| CC(=O)NCCCC(=O)NNC1CC(=O)N(c2cccc(Cl)c2)C1=O (stereo not given) | – | inactive: 20% |
| O=C(CCl)Nc1cccc(S(=O)(=O)NC2=NCCCCC2)c1 | inconclusive [cytotoxic, partial curve, poor fit] | – |
| COCCn1c(N)c(N(Cc2ccccc2)C(=O)Cc2c(Cl)cccc2Cl)c(=O)[nH]c1=O | inconclusive [rising, single point] | – |
| COc1ccc(Br)c(Cn2c(C)c(C(=O)N(C)Cc3ccc(F)cc3)sc2=O)c1 | inconclusive [cytotoxic, single point] | – |
| CSc1nc2ccc3nc(NC(=O)c4cccs4)sc3c2s1 | inconclusive [rising, single point] | – |
| Cc1ccc(NC(=O)N(Cc2nc3ccccc3c(=O)[nH]2)Cc2cccs2)cc1 | – | inactive: -0.651% |
| c1ccc(Nc2c3c(nc4ccccc24)CCC3)cc1 | inconclusive [cytotoxic, partial curve] | – |
| CCc1ccc(C2=NNC(=Nc3cccc(S(=O)(=O)N(C)C)c3)SC2)cc1 | inconclusive [cytotoxic, single point] | – |
| Cc1nn(CCCC(=O)NCc2ccc(F)cc2)c(=O)c2nccn12 | – | inactive: 6.71% |
| Cc1cc(NC(=O)CC2CCCC2)n(-c2nc3ccccc3[nH]2)n1 | active: 18.4 µM | – |
| COc1cc2c(cc1OC)C(C)N(C(=O)Nc1ccccc1)CC2 (stereo not given) | active: 2.59 µM | – |
| Cc1ccc(-c2nc3ccccc3[nH]2)cn1 | inconclusive [cytotoxic, partial curve] | – |
| COc1cc(C(C)=O)ccc1OCCCN1CCC(Cc2ccccc2)CC1 | inconclusive [cytotoxic, single point] | – |
| CC(C)(C)OC(=O)NCCCC[C@H](NC(=O)c1nc[nH]c1C(=O)NCc1ccccc1)C(=O)OC(C)(C)C | inconclusive [cytotoxic, single point] | – |
| CCOc1ccccc1NC(=S)Nc1ncccc1C | inconclusive [cytotoxic, single point] | – |
| N#CCC(=O)N/N=C/c1ccc(Cl)cc1 | – | inactive: 0.335% |
| O=S(=O)(Nc1nccs1)c1ccc(Nc2nnc(-c3ccccc3)c3ccccc23)cc1 | inconclusive [cytotoxic, partial curve, poor fit] | – |
| COc1ccc(-c2cc(C(=O)OCC(=O)N3CCCC3)c3ccccc3n2)cc1 | inconclusive [cytotoxic, single point] | – |
| CCCCN(C=O)c1c(CC)nc2c(OCc3ccc(Cl)cc3)cccn12 | inconclusive [cytotoxic, single point] | – |
| Cc1ccc(C)c(S(=O)(=O)N2CCN(C(=O)CNC(=O)c3sc4ccccc4c3Cl)CC2)c1 | – | inactive: 8.32% |
| Cc1ccc2nc(-c3ccc(NC(=O)CN4CCN(c5ccccn5)CC4)cc3)sc2c1 | – | inactive: -8.4% |
